MIC of invasive clinical C. tropicalis isolates, CLSI broth microdilution (fluconazole 0.12-256 mg/L, up to 1,024 for the azole-resistant cluster and its neighbour group; other ranges not stated); higher = less susceptible. Call: susceptible or wild type [S] / resistant or non-wild type [R] by CLSI breakpoints or cut-offs; intermediate and dose-dependent carry no call. '<=' and '>=' at the end values are inferred; the source marks only some of them. Isolates are numbered anew.
compound: CCC(C)n1ncn(-c2ccc(N3CCN(c4ccc(OCC5COC(Cn6cncn6)(c6ccc(Cl)cc6Cl)O5)cc4)CC3)cc2)c1=O [itraconazole]; assay: CLSI broth microdilution.

Row | Test System | MIC
1 | Candida tropicalis isolate 402 (ERG11 copies: 2, Erg11p: no key change) | 0.12 mg/L [S]
2 | Candida tropicalis isolate 27 (ERG11 copies: 2, Erg11p: no key change) | ≥ 16 mg/L [R]
3 | Candida tropicalis isolate 99 (ERG11 copies: 2, Erg11p: no key change) | 0.12 mg/L [S]
4 | Candida tropicalis isolate 340 (ERG11 copies: 2, Erg11p: no key change) | 0.25 mg/L [S]
5 | Candida tropicalis isolate 410 (ERG11 copies: 8, Erg11p: Y132F, S154F (heterozygous)) | 0.5 mg/L [S]
6 | Candida tropicalis isolate 416 (ERG11 copies: 2, Erg11p: no key change) | 0.12 mg/L [S]
7 | Candida tropicalis isolate 318 (ERG11 copies: 2, Erg11p: no key change) | 0.12 mg/L [S]
8 | Candida tropicalis isolate 320 (ERG11 copies: 2, Erg11p: no key change) | 0.25 mg/L [S]
9 | Candida tropicalis isolate 226 (ERG11 copies: 2, Erg11p: no key change) | 0.5 mg/L [S]
10 | Candida tropicalis isolate 266 (ERG11 copies: 2, Erg11p: no key change) | 0.25 mg/L [S]
11 | Candida tropicalis isolate 271 (ERG11 copies: 2, Erg11p: no key change) | 0.03 mg/L [S]
12 | Candida tropicalis isolate 63 (ERG11 copies: 2, Erg11p: no key change) | 0.12 mg/L [S]
13 | Candida tropicalis isolate 386 (ERG11 copies: 2, Erg11p: no key change) | 0.25 mg/L [S]
14 | Candida tropicalis isolate 23 (ERG11 copies: 2, Erg11p: no key change) | 0.25 mg/L [S]
15 | Candida tropicalis isolate 72 (ERG11 copies: 2, Erg11p: no key change) | 0.5 mg/L [S]
16 | Candida tropicalis isolate 430 (ERG11 copies: 2, Erg11p: no key change) | 0.015 mg/L [S]
17 | Candida tropicalis isolate 147 (ERG11 copies: 2, Erg11p: no key change) | 0.25 mg/L [S]
18 | Candida tropicalis isolate 309 (ERG11 copies: 2, Erg11p: no key change) | 0.06 mg/L [S]

Row | Test System | MIC
19 | Candida tropicalis isolate 262 (ERG11 copies: 2, Erg11p: no key change) | 0.25 mg/L [S]
20 | Candida tropicalis isolate 31 (ERG11 copies: 2, Erg11p: no key change) | 0.25 mg/L [S]
21 | Candida tropicalis isolate 397 (ERG11 copies: 7, Erg11p: Y132F, S154F (heterozygous)) | 1 mg/L [R]
22 | Candida tropicalis isolate 419 (ERG11 copies: 2, Erg11p: no key change) | 0.25 mg/L [S]
23 | Candida tropicalis isolate 314 (ERG11 copies: 2, Erg11p: no key change) | 0.12 mg/L [S]
24 | Candida tropicalis isolate 361 (ERG11 copies: 2, Erg11p: no key change) | 0.06 mg/L [S]
25 | Candida tropicalis isolate 26 (ERG11 copies: 2, Erg11p: no key change) | 0.06 mg/L [S]
26 | Candida tropicalis isolate 441 (ERG11 copies: 2, Erg11p: no key change) | 0.25 mg/L [S]
27 | Candida tropicalis isolate 8 (ERG11 copies: 2, Erg11p: no key change) | 0.5 mg/L [S]
28 | Candida tropicalis isolate 237 (ERG11 copies: 7, Erg11p: Y132F, S154F (heterozygous)) | 1 mg/L [R]
29 | Candida tropicalis isolate 413 (ERG11 copies: 8, Erg11p: Y132F, S154F (heterozygous)) | 1 mg/L [R]
30 | Candida tropicalis isolate 387 (ERG11 copies: 2, Erg11p: no key change) | 0.06 mg/L [S]
31 | Candida tropicalis isolate 215 (ERG11 copies: 2, Erg11p: Y257H (homozygous)) | 0.5 mg/L [S]
32 | Candida tropicalis isolate 345 (ERG11 copies: 2, Erg11p: no key change) | 0.25 mg/L [S]
33 | Candida tropicalis isolate 122 (ERG11 copies: 2, Erg11p: no key change) | 0.5 mg/L [S]
34 | Candida tropicalis isolate 112 (ERG11 copies: 5, Erg11p: Y132F, S154F (heterozygous)) | 0.5 mg/L [S]
35 | Candida tropicalis isolate 367 (ERG11 copies: 2, Erg11p: no key change) | 0.12 mg/L [S]
36 | Candida tropicalis isolate 235 (ERG11 copies: 2, Erg11p: no key change) | 0.12 mg/L [S]

compound: C[C@@H]1[C@H](O)[C@@H](C)/C=C/C=C/C=C/C=C/C=C/C=C/C=C/[C@H](O[C@@H]2O[C@H](C)[C@@H](O)[C@H](N)[C@@H]2O)C[C@@H]2O[C@](O)(C[C@@H](O)C[C@@H](O)[C@H](O)CC[C@@H](O)C[C@@H](O)CC(=O)O[C@H]1C)C[C@H](O)[C@H]2C(=O)O [amphotericin B]; assay: CLSI broth microdilution.

Row | Test System | MIC
37 | Candida tropicalis isolate 402 (ERG11 copies: 2, Erg11p: no key change) | 1 mg/L [S]
38 | Candida tropicalis isolate 27 (ERG11 copies: 2, Erg11p: no key change) | 0.5 mg/L [S]
39 | Candida tropicalis isolate 99 (ERG11 copies: 2, Erg11p: no key change) | 0.25 mg/L [S]
40 | Candida tropicalis isolate 340 (ERG11 copies: 2, Erg11p: no key change) | 1 mg/L [S]
41 | Candida tropicalis isolate 410 (ERG11 copies: 8, Erg11p: Y132F, S154F (heterozygous)) | 0.5 mg/L [S]
42 | Candida tropicalis isolate 416 (ERG11 copies: 2, Erg11p: no key change) | 0.5 mg/L [S]
43 | Candida tropicalis isolate 318 (ERG11 copies: 2, Erg11p: no key change) | 0.5 mg/L [S]
44 | Candida tropicalis isolate 320 (ERG11 copies: 2, Erg11p: no key change) | 0.5 mg/L [S]
45 | Candida tropicalis isolate 226 (ERG11 copies: 2, Erg11p: no key change) | 1 mg/L [S]
46 | Candida tropicalis isolate 266 (ERG11 copies: 2, Erg11p: no key change) | 1 mg/L [S]
47 | Candida tropicalis isolate 271 (ERG11 copies: 2, Erg11p: no key change) | 0.5 mg/L [S]
48 | Candida tropicalis isolate 63 (ERG11 copies: 2, Erg11p: no key change) | 0.25 mg/L [S]
49 | Candida tropicalis isolate 386 (ERG11 copies: 2, Erg11p: no key change) | 1 mg/L [S]
50 | Candida tropicalis isolate 23 (ERG11 copies: 2, Erg11p: no key change) | 1 mg/L [S]
51 | Candida tropicalis isolate 72 (ERG11 copies: 2, Erg11p: no key change) | 1 mg/L [S]
52 | Candida tropicalis isolate 430 (ERG11 copies: 2, Erg11p: no key change) | 0.5 mg/L [S]
53 | Candida tropicalis isolate 147 (ERG11 copies: 2, Erg11p: no key change) | 1 mg/L [S]
54 | Candida tropicalis isolate 309 (ERG11 copies: 2, Erg11p: no key change) | 0.25 mg/L [S]

Row | Test System | MIC
55 | Candida tropicalis isolate 262 (ERG11 copies: 2, Erg11p: no key change) | 1 mg/L [S]
56 | Candida tropicalis isolate 31 (ERG11 copies: 2, Erg11p: no key change) | 0.5 mg/L [S]
57 | Candida tropicalis isolate 397 (ERG11 copies: 7, Erg11p: Y132F, S154F (heterozygous)) | 0.5 mg/L [S]
58 | Candida tropicalis isolate 419 (ERG11 copies: 2, Erg11p: no key change) | 0.5 mg/L [S]
59 | Candida tropicalis isolate 314 (ERG11 copies: 2, Erg11p: no key change) | 1 mg/L [S]
60 | Candida tropicalis isolate 361 (ERG11 copies: 2, Erg11p: no key change) | 0.5 mg/L [S]
61 | Candida tropicalis isolate 26 (ERG11 copies: 2, Erg11p: no key change) | 0.5 mg/L [S]
62 | Candida tropicalis isolate 441 (ERG11 copies: 2, Erg11p: no key change) | 0.5 mg/L [S]
63 | Candida tropicalis isolate 8 (ERG11 copies: 2, Erg11p: no key change) | 1 mg/L [S]
64 | Candida tropicalis isolate 237 (ERG11 copies: 7, Erg11p: Y132F, S154F (heterozygous)) | 1 mg/L [S]
65 | Candida tropicalis isolate 413 (ERG11 copies: 8, Erg11p: Y132F, S154F (heterozygous)) | 1 mg/L [S]
66 | Candida tropicalis isolate 387 (ERG11 copies: 2, Erg11p: no key change) | 1 mg/L [S]
67 | Candida tropicalis isolate 215 (ERG11 copies: 2, Erg11p: Y257H (homozygous)) | 0.5 mg/L [S]
68 | Candida tropicalis isolate 345 (ERG11 copies: 2, Erg11p: no key change) | 1 mg/L [S]
69 | Candida tropicalis isolate 122 (ERG11 copies: 2, Erg11p: no key change) | 1 mg/L [S]
70 | Candida tropicalis isolate 112 (ERG11 copies: 5, Erg11p: Y132F, S154F (heterozygous)) | 1 mg/L [S]
71 | Candida tropicalis isolate 367 (ERG11 copies: 2, Erg11p: no key change) | 0.5 mg/L [S]
72 | Candida tropicalis isolate 235 (ERG11 copies: 2, Erg11p: no key change) | 1 mg/L [S]

compound: C[C@@H](c1ncncc1F)[C@](O)(Cn1cncn1)c1ccc(F)cc1F [voriconazole]; assay: CLSI broth microdilution.

Row | Test System | MIC
73 | Candida tropicalis isolate 402 (ERG11 copies: 2, Erg11p: no key change) | 0.06 mg/L [S]
74 | Candida tropicalis isolate 27 (ERG11 copies: 2, Erg11p: no key change) | 2 mg/L [R]
75 | Candida tropicalis isolate 99 (ERG11 copies: 2, Erg11p: no key change) | 0.12 mg/L [S]
76 | Candida tropicalis isolate 340 (ERG11 copies: 2, Erg11p: no key change) | 0.12 mg/L [S]
77 | Candida tropicalis isolate 410 (ERG11 copies: 8, Erg11p: Y132F, S154F (heterozygous)) | ≥ 8 mg/L [R]
78 | Candida tropicalis isolate 416 (ERG11 copies: 2, Erg11p: no key change) | 0.12 mg/L [S]
79 | Candida tropicalis isolate 318 (ERG11 copies: 2, Erg11p: no key change) | 0.06 mg/L [S]
80 | Candida tropicalis isolate 320 (ERG11 copies: 2, Erg11p: no key change) | 0.12 mg/L [S]
81 | Candida tropicalis isolate 226 (ERG11 copies: 2, Erg11p: no key change) | 0.25 µg/mL
